The source of these data is publication PMC4336329 (PLoS ONE, 2015).

Structures are written as SMILES. The whole screen tested about 310,000 compounds, of which about 2,200 (0.71%) showed an effect of 50% or more. Effects have a minus sign here. The list shows a part of the results.

The target in the test is human ether-à-go-go-related gene (hERG) potassium channel (human, UniProt Q12809). Put plainly: primary screen, population patch clamp on CHO cells stably expressing hERG.
human ether-à-go-go-related gene (hERG) potassium channel, sequence (Q12809 whole entry, looked up): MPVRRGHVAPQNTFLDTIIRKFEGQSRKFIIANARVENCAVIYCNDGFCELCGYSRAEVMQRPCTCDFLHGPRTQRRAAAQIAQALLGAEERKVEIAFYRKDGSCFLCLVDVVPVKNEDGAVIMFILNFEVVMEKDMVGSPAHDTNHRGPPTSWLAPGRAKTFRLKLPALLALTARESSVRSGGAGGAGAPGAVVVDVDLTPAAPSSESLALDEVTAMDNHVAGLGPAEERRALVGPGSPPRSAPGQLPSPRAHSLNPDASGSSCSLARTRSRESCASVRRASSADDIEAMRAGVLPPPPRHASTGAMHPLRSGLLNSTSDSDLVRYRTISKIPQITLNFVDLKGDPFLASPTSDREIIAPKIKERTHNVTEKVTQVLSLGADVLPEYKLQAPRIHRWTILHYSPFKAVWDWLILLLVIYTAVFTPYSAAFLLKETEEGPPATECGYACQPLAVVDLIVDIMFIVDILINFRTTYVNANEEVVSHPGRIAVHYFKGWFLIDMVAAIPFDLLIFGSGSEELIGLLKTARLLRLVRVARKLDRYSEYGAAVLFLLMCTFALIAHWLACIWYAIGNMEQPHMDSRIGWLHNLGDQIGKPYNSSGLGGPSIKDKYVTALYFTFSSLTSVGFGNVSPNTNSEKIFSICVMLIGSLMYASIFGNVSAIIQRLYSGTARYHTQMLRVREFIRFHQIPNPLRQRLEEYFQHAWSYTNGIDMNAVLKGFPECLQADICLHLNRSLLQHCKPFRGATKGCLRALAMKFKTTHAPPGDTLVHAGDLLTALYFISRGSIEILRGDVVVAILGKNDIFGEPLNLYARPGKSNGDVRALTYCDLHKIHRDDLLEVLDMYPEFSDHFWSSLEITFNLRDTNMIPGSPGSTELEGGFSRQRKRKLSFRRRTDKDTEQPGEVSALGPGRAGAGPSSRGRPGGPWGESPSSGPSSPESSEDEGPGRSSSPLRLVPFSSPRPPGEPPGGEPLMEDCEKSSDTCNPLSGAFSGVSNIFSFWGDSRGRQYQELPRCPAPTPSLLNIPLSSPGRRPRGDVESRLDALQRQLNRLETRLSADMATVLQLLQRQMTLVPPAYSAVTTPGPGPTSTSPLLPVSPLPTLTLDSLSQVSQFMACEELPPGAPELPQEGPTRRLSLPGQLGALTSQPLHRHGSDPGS
On to `COc1cc(NC(=O)CCCN2C(=O)NC(C)(C)C2=O)cc(OC)c1`, for which the “hERG current change (%, negative = inhibition) at 1uM” value was 10.5%.

On to `O=C(CSc1ncccn1)NCC1CCCO1` (stereo not drawn), for which the “hERG current change (%, negative = inhibition) at 1uM” value is given as 5.82%.

For the compound `COc1ccccc1N(C)S(=O)(=O)c1ccc(C(=O)OC(C)C(=O)NCc2ccc3c(c2)OCO3)cc1` (stereo not drawn), the “hERG current change (%, negative = inhibition) at 1uM” value stood at 13.3%.

On to `CN1CCN(C(=O)c2cn(-c3ccccc3)nc2-c2cccnc2)CC1`, for which the “hERG current change (%, negative = inhibition) at 1uM” value is 2.28%.

`O=C1/C(=C/c2ccccc2F)SC(=S)N1CCC(=O)N1CCCCC1CCO` (stereo not drawn): the “hERG current change (%, negative = inhibition) at 1uM” value is given as 11.5%.

Turning to `NC(=O)C1CCN(CC(=O)N2N=CCC2c2ccccc2)CC1` (stereo not drawn), the “hERG current change (%, negative = inhibition) at 1uM” value is -2.73%.

With `O=C1Nc2c(c(=O)[nH]c(=O)n2Cc2ccccc2)C1(NS(=O)(=O)c1ccccc1)C(F)(F)F` (stereo not drawn), the “hERG current change (%, negative = inhibition) at 1uM” value amounted to 14.5%.

In the case of `Cc1ccc2nc(NC(=O)CSc3nncc(=O)n3N)sc2c1`, the “hERG current change (%, negative = inhibition) at 1uM” value was found to be 6.18%.

Turning to `Cc1cccc(-n2c(C)cc(/C=N/NC(=O)c3ccc(CN4CCOCC4)cc3)c2C)c1`, the “hERG current change (%, negative = inhibition) at 1uM” value stood at 1.39%.

Consider `COc1cc(OC)cc(C(=O)Nc2nnc(SCC(=O)NCC3CCCO3)s2)c1` (stereo not drawn), for which the “hERG current change (%, negative = inhibition) at 1uM” value worked out at 10.4%.

As to `CN1CCN(C(=O)N2CCNC2=O)CC1.Cl`, the “hERG current change (%, negative = inhibition) at 1uM” value is recorded as 5.77%.

For `Cc1ccc(-c2nnc(Nc3ccc(C(N)=O)cc3)c3ccccc23)cc1S(=O)(=O)NCC1CCCO1` (stereo not drawn), the “hERG current change (%, negative = inhibition) at 1uM” value came out at 0.193%.

For `O=C(O)c1ccccc1NC(=S)NC(NC(=O)c1ccccc1[N+](=O)[O-])C(Cl)(Cl)Cl` (stereo not drawn), the “hERG current change (%, negative = inhibition) at 1uM” value is 5.13%.

In the case of `O=C(CCn1nc(-c2ccccc2)ccc1=O)N1CCOCC1`, the “hERG current change (%, negative = inhibition) at 1uM” value is given as -0.0478%.

As for `CCCN1CNc2c(c(=O)[nH]c(=S)n2-c2ccccc2Cl)C1`, the “hERG current change (%, negative = inhibition) at 1uM” value amounted to 0.574%.

As for `N#Cc1c(C#N)c(-c2ccccc2)n(-c2ccccc2)c1N`, the “hERG current change (%, negative = inhibition) at 1uM” value was determined as 3.94%.

With `Cn1c(N)c(N2CCCCC2)c(=O)n(CC(=O)Nc2ccc(Cl)c(Cl)c2)c1=O`, the “hERG current change (%, negative = inhibition) at 1uM” value was 1.87%.

In the case of `COc1ccc(N2CCN(C(=O)C3CCCO3)CC2)cc1` (stereo not drawn), the “hERG current change (%, negative = inhibition) at 1uM” value is 7.68%.

In the case of `CCCC(NC(=O)c1ccco1)c1nc2ccccc2[nH]1` (stereo not drawn), the “hERG current change (%, negative = inhibition) at 1uM” value worked out at 1.97%.

Consider `CC1CN(C(=O)CCC(=O)NC(C)c2ccccc2)c2cc(Cl)ccc2O1` (stereo not drawn), for which the “hERG current change (%, negative = inhibition) at 1uM” value is given as 6.45%.

Turning to `CCOc1ccc(-n2c(SCC(=O)N3CCc4ccccc43)nnc2-c2c[nH]c3ccccc23)cc1`, the “hERG current change (%, negative = inhibition) at 1uM” value is listed as 19.1%.

As for `COc1cc2cc(C(=O)N3CCN(c4ccccc4OC)CC3)[nH]c2cc1OC`, the “hERG current change (%, negative = inhibition) at 1uM” value came out at 17.2%.

As to `Cc1ccc(NC(=O)c2c(C)nc3sc(C(=O)NC4CCCC4)c(N)c3c2-c2ccco2)c(C)c1`, the “hERG current change (%, negative = inhibition) at 1uM” value is 5.2%.

On to `COc1ccc(S(=O)(=O)NCCNC(=O)N2CCOCC2)cc1`, for which the “hERG current change (%, negative = inhibition) at 1uM” value is recorded as -27.4%.

In the case of `CCOc1ccccc1C(=O)Nc1cccc2ccccc12`, the “hERG current change (%, negative = inhibition) at 1uM” value worked out at 13.7%.

On to `COc1cc(C(=O)OCC(=O)NC2CCS(=O)(=O)C2)ccc1OCc1c(C)noc1C` (stereo not drawn), for which the “hERG current change (%, negative = inhibition) at 1uM” value was 6.59%.

With `Cc1cccc(C2(c3cccc(C)c3)CC2C(=O)NCC2CCCO2)c1` (stereo not drawn), the “hERG current change (%, negative = inhibition) at 1uM” value came to 9.01%.

As for `Cc1cc2cc(CNC(=S)Nc3ccc(OC(F)(F)F)cc3)ccc2[nH]1`, the “hERG current change (%, negative = inhibition) at 1uM” value is recorded as 21.9%.

Take `COc1cc(C(C)=O)ccc1OCC(O)Cn1nc(C)c(C(C)=O)c1C` (stereo not drawn): the “hERG current change (%, negative = inhibition) at 1uM” value was determined as 5%.

For the compound `CCOC(=O)c1sc(NC(=O)CSc2nc(C)cc(-c3ccccc3)n2)c(C#N)c1C`, the “hERG current change (%, negative = inhibition) at 1uM” value was 12.6%.

For `COc1cccc(Cn2c(-c3nonc3N)nc3ccccc32)c1`, the “hERG current change (%, negative = inhibition) at 1uM” value came to 0.388%.

Regarding `O=C1CN(C(=O)COc2ccc(Br)cc2Br)c2ccccc2N1`, the “hERG current change (%, negative = inhibition) at 1uM” value stood at 5.89%.

Consider `O=C(NC1=NC2CCCCC2N1)c1ccccc1` (stereo not drawn), for which the “hERG current change (%, negative = inhibition) at 1uM” value is recorded as 12.5%.

`Cc1cccc(NC(=O)C2CCCN(c3cnccn3)C2)c1` (stereo not drawn): the “hERG current change (%, negative = inhibition) at 1uM” value came to 10.7%.

As for `CN(C)S(=O)(=O)c1cccc(-c2nnc3n2CCCCC3)c1`, the “hERG current change (%, negative = inhibition) at 1uM” value is given as 6.29%.

As for `O=P(O)(O)COc1ccccc1P(=O)(c1ccccc1)c1ccccc1`, the “hERG current change (%, negative = inhibition) at 1uM” value is given as 7.28%.

Take `COc1ccc(N2C(=O)CSC2c2ccncc2)cc1` (stereo not drawn): the “hERG current change (%, negative = inhibition) at 1uM” value was 10.2%.

Regarding `Cc1nn(CC#N)c(=O)n1-c1ccc(C(C)C)cc1`, the “hERG current change (%, negative = inhibition) at 1uM” value worked out at 11.3%.

Regarding `CC1(C)NC(=O)N(CC(O)CN(Cc2ccccc2)Cc2ccccc2)C1=O` (stereo not drawn), the “hERG current change (%, negative = inhibition) at 1uM” value is recorded as 9.31%.

On to `Cc1ccc(CNCc2ccc3c(c2)OCO3)cc1`, for which the “hERG current change (%, negative = inhibition) at 1uM” value came to 10.3%.

Regarding `O=C(O)C1=C[C@@H](c2csc3ccccc23)C[C@@H](OCCCCO)O1`, the “hERG current change (%, negative = inhibition) at 1uM” value was found to be 9.35%.

As for `NC(=O)C1=C[C@@H](c2csc3ccccc23)C[C@@H](OCc2ccc(CO)cc2)O1`, the “hERG current change (%, negative = inhibition) at 1uM” value is on record as 4.37%.

On to `Cc1ccc(C)c(NC(=S)N2CCN(Cc3ccccc3)CC2)c1`, for which the “hERG current change (%, negative = inhibition) at 1uM” value was 20.8%.

With `O=C(NC1CCCCCCC1)C1c2ccccc2C(=O)N1Cc1ccco1` (stereo not drawn), the “hERG current change (%, negative = inhibition) at 1uM” value is listed as 3.37%.

On to `O=C(/C=C/c1ccccc1[N+](=O)[O-])N1CCc2ccccc2C1`, for which the “hERG current change (%, negative = inhibition) at 1uM” value turned out to be 4.33%.

For `Cc1ccn2c(=O)nc(SCC(=O)N3CCCCCC3)nc2c1`, the “hERG current change (%, negative = inhibition) at 1uM” value is recorded as 19.6%.

With `C=CCSc1nc2sc3c(c2c(=O)[nH]1)CCC3`, the “hERG current change (%, negative = inhibition) at 1uM” value worked out at 2.57%.

In the case of `Cc1ccccc1C(=O)Nc1ccc2c(c1)CCCN2C(=O)c1cccs1`, the “hERG current change (%, negative = inhibition) at 1uM” value amounted to 4.77%.

With `COc1ccc(Cn2ccnc2CO)cc1[N+](=O)[O-].Cl`, the “hERG current change (%, negative = inhibition) at 1uM” value worked out at 7.25%.

Turning to `CC(CNC(=O)CN1C(=O)NC2(CCOc3ccccc32)C1=O)c1ccccc1` (stereo not drawn), the “hERG current change (%, negative = inhibition) at 1uM” value amounted to 3.15%.

As for `COc1ccccc1NCc1cc(=O)oc2c(C)c(O)ccc12`, the “hERG current change (%, negative = inhibition) at 1uM” value is 14.9%.

On to `Cc1cccc(Nc2nc(-c3ccccc3)c(C(=O)Nc3cccnc3)s2)c1`, for which the “hERG current change (%, negative = inhibition) at 1uM” value is recorded as 9.26%.

As for `Cc1cc(C)c2c3c(sc2n1)C(=O)N(C)CC(=O)N3`, the “hERG current change (%, negative = inhibition) at 1uM” value is given as 5.35%.

`CCc1c(C2(O)CCCCC2)[nH]c2cnccc12`: the “hERG current change (%, negative = inhibition) at 1uM” value is 7.22%.

For `Cc1cccc(N(CC(=O)NCCc2ccccc2)C(=O)c2csnn2)c1`, the “hERG current change (%, negative = inhibition) at 1uM” value is 10%.

In the case of `Cc1ccc2[nH]c3c(c2c1)CN(C(C)C)CC3`, the “hERG current change (%, negative = inhibition) at 1uM” value is recorded as 10.6%.

`CSc1ccc(C(=O)C2CCCN(C(=O)c3nn(C)c(=O)c4ccccc34)C2)cc1` (stereo not drawn): the “hERG current change (%, negative = inhibition) at 1uM” value is recorded as -17.4%.
